B1: A12-Fc (Fc fusion)
chain: EVQVVESGGGLAQPGGSLRLSCAASGFTFSNYGMKWVRQAPGKGPEWVSTILSQGGSTYYADSVKGRFTISRDNAKNTLYLQMNSLKPEDTALYYCLRVDWSDYSPRGQGTQVTVSA[gap - human IgG1 Fc with changes]
notes: also called Ab12
B2: A297-Fc (Fc fusion)
chain: QVQLVESGGGMVEPGGSLRLSCAASGFTFSRYGMKWVRQAPGKGPEWVSTINSHGDTTYYADSVKGRFTISRDNAQNTVYLQMNSLKPEDTALYYCLRIDYSDYSSRGQGTQVTVSS[gap - human IgG1 Fc with changes]
notes: also called Ab297

Experiments:
[1] = target: T1, human CD40 with C-terminal Flag tag on HEK293 cells (human, UniProt P25942 21-277); experiment: FACS, HEK293 cells transiently expressing human CD40
T1 construct: whole, on cells; also called HEK293 cells highly expressing CD40; cell strain highly expressing human CD40
Experimental: The ability of the humanized antibodies to bind to cells highly expressing the human antigen protein CD40 was measured by FACS. HEK293 cells were transiently transfected with CD40 plasmids (CD40 cDNA ORF Clone, Human, C-[…] (Flag®) Tag; Sino Biological; HG10774-CF), yielding HEK293 cells highly expressing CD40. The resulting cells were resuspended in the flow cytometry staining buffer ([…]), and the test antibodies that had been serially diluted to different concentrations were added. After 1 h of incubation on ice, the cells were washed with PBS and centrifuged at 400 g for 5 min. A goat anti-human Fc antibody labeled with the fluorescent group Alexa Fluor 647 was added as a secondary antibody, and the cells were stained in an ice bath for 1 h. After two washes with PBS, the fluorescent signals on the cell surface were detected by FACS. The humanized antibodies of the present disclosure all have relatively high affinities for the cell strain highly expressing CD40.

[2] = target: T2, human CD40 on cells (Raji cells; HEK-Blue CD40L cells; human dendritic cells) (human, UniProt P25942 21-277); experiment: cell-based or functional assay
[3] = target: T2, human CD40 on cells (Raji cells; …); experiment: FACS on Raji cells
Experimental: A FACS assay was used to measure the binding properties of anti-CD40 antibodies on cells. The assay comprises the following steps: Raji single cells were obtained and plated. The test antibodies were added at 100 μL/well. The highest concentration point was 100 nM. A 5-fold dilution was performed, yielding 8 concentration points in total. The plate was incubated at 4° C. for 1 h. Anti-hIgG Alexa Fluor-647 was added as a secondary antibody in the ratio of 1:500. The plate was incubated at 4° C. for 30 min. A FACS assay was performed. A CD40 agonist was used as a positive control.

[4] = target: T2, human CD40 on cells (Raji cells; …); experiment: cell-based or functional assay; remark: listed apart in the source

Row | Binder | EC50 [1] [nM] | Emax MFI [1] [MFI] | FcγRIIb-mediated activation of HEK-Blue CD40L cells, Emax (relative fluorescence intensity) [2] | EC50 [3] [nM] | Maximum response (percentage relative to 200 nM 9E5-SELFNS), HEK-Blue CD40L reporter cells [4] [%] | agonist activity EC50, HEK-Blue CD40L reporter cells (SEAP) [4] [nM] | FcγRIIb-mediated activation of HEK-Blue CD40L cells, EC50 [2] [nM]
1 | B1 | 1.09 | 17300 | 9.68 relative fluorescence intensity | 0.366 | 51.8 | 0.231 | 
2 | B2 | 1.12 | 16700 | 17.3 relative fluorescence intensity | 0.529 | 84.2 | 0.556 | 0.243
